According to ChEMBL document CHEMBL4888484, “Replenishing the malaria drug discovery pipeline: Screening and hit evaluation of the MMV Hit Generation Library 1 (HGL1) against asexual blood stage Plasmodium falciparum ,using a nano luciferase reporter read-out” (2022):
Screen size: about 150,000 compounds; about 540 (0.36%) showed an effect of 50% or more. The list shows a part of the results.

Each compound was assayed on Plasmodium falciparum (assay: Primary screen in NF54 nanoGlo assay, in single point, at 2uM, 72h; a lower Z score goes with more inhibition). Conditions: timepoint 72 hour.
Format: functional, Erythrocyte

SMILES | % Inhibition [%] | Z score
Cc1onc(OC(F)F)c1NC(=O)Cc1ccn(C)n1 | -5 | 0.6
CC(C)(C)OC(=O)N1CC2(CC2)c2ccccc2[C@@H]1C(=O)O | -7 | 1.32
CCCCNCCCOc1cccc(Cl)c1Cl | -9 | 1.76
COc1ccc(N2CCN(C(=O)Cn3c(=O)c4nncn4c4ncccc43)CC2)cc1 | -10 | 1.27
C[C@H](Oc1ccccc1Cl)C(=O)N(C)CC1(O)CCCC1 | 2 | -0.27
COc1ccc(CNc2nc(NCc3ccc(OC)c(OC)c3)n(S(=O)(=O)c3ccc(C)cc3)n2)cc1OC | -13 | 1.9
CC(=O)NCCOc1cc(C)ccc1C | 30 | -3.35
Cc1ccc(-c2cc(-c3ccccc3Cl)c3c(N)c(C(=O)Nc4ccc(Oc5ccccc5)cc4)sc3n2)cc1 | 5 | -0.57
CC[C@H]1[C@@H](NC(=O)c2ccc(Cl)o2)[C@H]2CCO[C@H]21 | -14 | 2.22
CN(CCC(=O)Nc1ccccc1Cl)Cc1ncccn1 | -33 | 3.91
Cc1cnc(C)n1CCNC(=O)C1CCCC1 | -2 | 0.27
COC1CC2C(=O)N(C3CCN(CC(F)(F)F)C3=O)C(=O)N2C1 (stereo not drawn) | -12 | 1.67
COc1ccc(NC(=O)CCc2c(C)noc2C)c2nonc12 | -3 | 0.65
O=C(CNC1CCCC1)Nc1ccccc1Cl | -9 | 1.4
C[C@H]1OCCN[C@@H]1C(=O)N(C)CC1CC1 | -8 | 0.95
O=C(c1ccco1)N1CC[C@H](Oc2cccc3cccnc23)C1 | -15 | 2.77
CC(C)O[C@@H]1CCN(C(=O)Nc2ccn(C3CCCCC3)n2)C1 | -5 | 0.81
CN(CC(=O)Nc1cccc(C(=O)O)c1)[C@H](c1ccccn1)C1CC1 | -9 | 1.24
O=C(CN(C1CC1)S(=O)(=O)c1ccc(F)c(F)c1)NC1CC1 | -6 | 0.9
CCCn1cc(NC(=O)N2CCOC(C)C2C)cn1 (stereo not drawn) | 0 | -0.05
CC(C)(C)C(=O)Cn1c(=O)n(CC2CCC(C(=O)NC3CCCC3)CC2)c(=O)c2ccccc21 (stereo not drawn) | -8 | 1.19
Cn1cc(OCC(=O)Nc2cc(Cl)cc(Br)c2O)cn1 | -5 | 0.88
Cc1ccc(Cl)cc1N1CCN(C(=O)C2CCN(c3ccc(N4CCC(C)CC4)nn3)CC2)CC1 | -11 | 2.02
CCCN(Cc1nnc(C2CCC2)o1)C1C2CCOC2C1(C)C (stereo not drawn) | -4 | 0.4
CCn1ncnc1[C@H](C)NC(=O)Cn1nc(-c2ccccc2)n(CC)c1=O | 1 | -0.1
Cn1cc(S(=O)(=O)NC[C@@](C)(O)CCc2ccccc2)cn1 | -7 | 1.16
COCc1n[nH]c(NC(=O)CN2C(=O)c3ccccc3N3C(=O)c4ccccc4[C@H]23)n1 | -14 | 1.79

SMILES | % Inhibition [%] | Z score
Cc1ccc2c(c1)CCCN2C(=O)c1ccc2ccccc2n1 | -7 | 1.15
CC1(C)CN(C(=O)CCn2cnnn2)CC[C@]1(C)O | -16 | 1.55
COCCC(=O)N(C)c1ccc(Br)c(C)c1 | -16 | 1.49
COCCn1cc(C(=O)NC[C@@]23CCC[C@@H]2OCC3)c(C)n1 | -6 | 1.08
Cc1ccc(CNC(=O)CNC(=O)c2ccc(F)cc2F)n1C | -3 | 0.66
CCNc1ncc(CN2CC[C@]3(OC)CC[C@@H](OCCO)C[C@H]23)cn1 | -3 | 0.54
O=C(CCc1ccncc1)N(Cc1ccccc1)[C@H]1CCS(=O)(=O)C1 | -9 | 1.53
COc1ccc2nc(C)c(C(=O)OCC(=O)N3CCC(Cc4ccccc4)CC3)cc2c1 | 2 | -0.26
Cc1nc(C2CCNCC2)cc(N(C)Cc2cc(-c3ccccc3)on2)n1 | -14 | 2.85
CCC(=O)N(CC(=O)Nc1cc(N2CCN(C(=O)NC(C)C)CC2)ccc1Cl)Cc1ccc(F)cc1 | -21 | 2.22
CCOC(=O)C1CCCN(C(=O)C(NC(=O)c2ccc(Cl)cc2Cl)C(C)C)C1 (stereo not drawn) | 1 | -0.13
C[C@H](O)c1cc2n(n1)CCN(S(=O)(=O)Cc1cc(F)ccc1Cl)C2 | -10 | 0.99
CC[C@H](NC(=O)N1CCNC(=O)CC1)C(C)(C)c1ccccc1 | 0 | 0.07
Cc1cnn(CCC(=O)N2CCN(C(=O)CCn3cc(C)cn3)[C@H](C(=O)N(C)C)C2)c1 | -6 | 0.56
CC1CCN(C[C@H]2CCCCCN2C(=O)NC2CCCC2)CC1 | -2 | 0.34
O=c1ccn(-c2ccccn2)n1CC1C[C@@H]2C=C[C@H]1C2 (stereo partly drawn) | -15 | 1.96
Cc1[nH]nc(C(F)(F)F)c1NS(=O)(=O)c1cccs1 | 33 | -0.43
CCCn1cc(CNc2cccnc2-n2cccn2)cn1 | -8 | 1.13
CC(C)[C@H](NC(=O)c1cc(O)ccn1)C(=O)NC1CCCCC1 | -5 | 0.48
FC(F)(F)Cn1nc(C2CCOCC2)nc1-c1scc2c1OCCO2 | -7 | 0.69
Cc1nccn1-c1cc(N2CCN(C)CC2)nc2ccnn12 | 0 | -0.05
CCc1cc(-c2n[nH]c(CC)c2-c2nnc(-c3ccccc3)s2)c(O)cc1OC | 3 | -0.38
CC(C)n1ncc(C(=O)N[C@@H](C)C(=O)NCc2ccccc2)c1C(F)(F)F | -9 | 1.38
CC(C)Cn1c(=O)c2sccc2n(CC(=O)Nc2ccc3c(c2)CCC3)c1=O | -6 | 0.83
Cc1noc([C@@H]2CN(Cc3ccncc3F)C[C@H]2C(N)=O)n1 | 3 | -0.47
Cc1occc1C(=O)NC[C@](C)(O)C1CCCCC1 | -4 | 0.54
CCc1cc(C(=O)Nc2cc(C)on2)no1 | -10 | 1.1
